About 220 (0.56%) of roughly 39,000 compounds showed activity. This is one part of the list.
These compounds were tested on Escherichia coli K-12 BW25113 (assay: relative growth (OD600 normalised to plate interquartile mean) (fraction); higher = less growth inhibition, active = 0.2 or less). Conditions: 50 µM; LB; incubation time: overnight (16-24 h).
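Further: static incubation at 37 °C against the wild-type strain, values averaged over two biological replicates.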

SMILES | relative growth
C[C@H]1CN([C@@H](C)CO)C(=O)Cc2cc(NC(=O)CCC(F)(F)F)ccc2O[C@H]1CN(C)Cc1ccc(Oc2ccccc2)cc1 | inactive: 0.932
CC1C=CC=CC=CC=CC=CC=CC=CC(OC2OC(C)C(O)C(N)C2O)CC2OC(O)(CC(O)CC(O)C(O)CCC(O)CC(O)CC(=O)OC(C)C(C)C1O)CC(O)C2C(=O)O (stereo unspecified) | inactive: 1.02
C[C@@H]1CCCCO[C@H](CN(C)C(=O)Nc2ccc(F)cc2)[C@@H](C)CN([C@@H](C)CO)C(=O)c2cc(NC(=O)c3ccccc3)ccc2O1 | inactive: 1.01
Cc1noc(C)c1NC(=O)N(C)C[C@@H]1OCCCC[C@H](C)Oc2ccc(NC(=O)Nc3cccc4ccccc34)cc2C(=O)N([C@H](C)CO)C[C@@H]1C | inactive: 1.03
C[C@H](CO)N1C[C@H](C)[C@H](CN(C)C(=O)Nc2ccc(C(F)(F)F)cc2)Oc2ccc(NC(=O)Nc3ccccc3)cc2C1=O | inactive: 1.02
Cc1noc(C)c1NC(=O)Nc1ccc2c(c1)C(=O)N([C@H](C)CO)C[C@@H](C)[C@@H](CN(C)C(=O)Nc1c(C)noc1C)OCCCC[C@@H](C)O2 | inactive: 1.02
C[C@@H]1CN([C@@H](C)CO)C(=O)c2cccc(NS(=O)(=O)c3ccc(Cl)cc3)c2O[C@H]1CN(C)C(=O)Nc1cccc2ccccc12 | inactive: 0.967
C[C@@H]1CCCCO[C@H](CN(C)C(=O)c2ccccc2)[C@@H](C)CN([C@@H](C)CO)C(=O)c2cc(NC(=O)c3ccccc3)ccc2O1 | inactive: 0.948
CC(C)N1C[C@H](C)[C@@H](CN(C)Cc2cccc(Cl)c2)Oc2c(NC(=O)c3ccncc3)cccc2C1=O | inactive: 1.04
C[C@@H]1CCCCO[C@@H](CN(C)C(=O)c2ccncc2)[C@@H](C)CN([C@H](C)CO)C(=O)c2cc(NC(=O)C3CCCCC3)ccc2O1 | inactive: 1.02
CCOC(=O)c1c[nH][nH]c1=O | inactive: 1
C[C@@H]1CN([C@@H](C)CO)C(=O)c2cc(NC(=O)CCN3CCOCC3)ccc2O[C@H]1CN(C)S(C)(=O)=O | inactive: 0.997
COC(=O)CCCCCCC(=O)Nc1ccc(NC(=O)CCCC[P+](c2ccccc2)(c2ccccc2)c2ccccc2)cc1 | inactive: 0.979
C[C@@H]1CN([C@@H](C)CO)C(=O)c2cc(NC(=O)CCC(F)(F)F)ccc2O[C@@H](C)CCCCO[C@H]1CN(C)Cc1ccccc1 | inactive: 0.983
CCOC(=O)c1c(C)cc(OC)cc1O | inactive: 0.917
Cc1noc(C)c1NC(=O)N(C)C[C@@H]1Oc2c(NC(=O)C3CCOCC3)cccc2C(=O)N([C@H](C)CO)C[C@@H]1C | inactive: 0.998
Cc1cccc(S(=O)(=O)N2C[C@H](O)COC[C@@H]3O[C@@H](CC(=O)N4CCN(C)CC4)CC[C@H]32)c1 | inactive: 0.979
C[C@H]1CN([C@@H](C)CO)C(=O)Cc2cc(NC(=O)Cn3cnnn3)ccc2O[C@@H]1CN(C)Cc1ccc(Oc2ccccc2)cc1 | inactive: 0.955
C[C@@H]1CN([C@@H](C)CO)C(=O)c2cc(NC(=O)Nc3ccccc3)ccc2O[C@@H](C)CCCCO[C@@H]1CN(C)C(=O)C1CCCCC1 | inactive: 0.972

SMILES | relative growth
COc1cccc(NC(=O)N(C)C[C@H]2Oc3cc(C#Cc4ccncc4)ccc3S(=O)(=O)N([C@H](C)CO)C[C@H]2C)c1 | inactive: 0.985
C[C@@H]1CCCCO[C@@H](CN(C)S(=O)(=O)c2ccc(Cl)cc2)[C@@H](C)CN([C@@H](C)CO)C(=O)c2cc(NS(=O)(=O)c3ccccc3)ccc2O1 | inactive: 1.03
Cc1noc(C)c1S(=O)(=O)N(C)C[C@H]1OCCCC[C@@H](C)Oc2ccc(NC(=O)Nc3ccc(F)cc3)cc2C(=O)N([C@H](C)CO)C[C@@H]1C | inactive: 1
COc1ccc(S(=O)(=O)N(C)C[C@H]2OCCCC[C@@H](C)Oc3ccc(NC(=O)Nc4ccc(C(F)(F)F)cc4)cc3C(=O)N([C@H](C)CO)C[C@H]2C)cc1 | inactive: 1.04
C[C@@H]1CCCCO[C@H](CN(C)Cc2ccc(C(=O)O)cc2)[C@@H](C)CN([C@@H](C)CO)C(=O)c2cc(NS(=O)(=O)c3cccs3)ccc2O1 | inactive: 1.01
COc1ccc(S(=O)(=O)N(C)C[C@@H]2Oc3cc(C#CC4CCCC4)ccc3S(=O)(=O)N([C@@H](C)CO)C[C@@H]2C)cc1 | inactive: 1.02
C[C@H](CO)N1C[C@H](C)[C@@H](CN(C)C(=O)Nc2cccc3ccccc23)Oc2ccc(NS(=O)(=O)c3cccs3)cc2CC1=O | inactive: 1.02
C[C@@H]1CN([C@H](C)CO)C(=O)c2cc(/C=C/c3ccccc3)cnc2O[C@H]1CN(C)C(=O)C1CCOCC1 | inactive: 1.02
C[C@@H]1CN([C@H](C)CO)C(=O)c2cc(NC(=O)Nc3ccc(F)cc3)ccc2O[C@@H](C)CCCCO[C@@H]1CN(C)Cc1ccc(C(F)(F)F)cc1 | inactive: 0.999
CN1C(=O)c2cc(NC(=O)c3cnccn3)ccc2OC[C@H]2O[C@H](CC(=O)N[C@@H]3CCN(Cc4ccccc4)C3)CC[C@@H]21 | inactive: 0.999
C[C@@H]1CN([C@@H](C)CO)C(=O)c2cc(NC(=O)NC3CCCCC3)ccc2O[C@@H](C)CCCCO[C@@H]1CN(C)S(=O)(=O)c1cccs1 | inactive: 1.01
COCC#Cc1ccc2c(c1)O[C@H](CN(C)S(=O)(=O)c1cccc(OC)c1)[C@H](C)CN([C@@H](C)CO)S2(=O)=O | inactive: 1.01
CN(C)CC(=O)N1CC(=O)N2[C@@H](CO)[C@@H](c3ccc(C#Cc4cccnc4)cc3)[C@@H]2C1 | inactive: 1.02
C[C@H]1CN([C@@H](C)CO)C(=O)c2cccc(NC(=O)C3CCOCC3)c2O[C@@H]1CN(C)S(=O)(=O)c1cccs1 | inactive: 0.983
C[C@@H]1CCCCO[C@H](CN(C)C(=O)NC2CCCCC2)[C@H](C)CN([C@@H](C)CO)C(=O)c2cc(NC(=O)C3CCCCC3)ccc2O1 | inactive: 1.02
C[C@@H]1CN([C@@H](C)CO)C(=O)CCCn2cc(nn2)CO[C@@H]1CN(C)C(=O)Nc1ccc(N2CCCCC2)cc1 | inactive: 0.969
Cc1ccc(S(=O)(=O)Nc2ccc3c(c2)C(=O)N([C@H](C)CO)C[C@@H](C)[C@@H](CN(C)Cc2ccc4c(c2)OCO4)OCCCC[C@@H](C)O3)cc1 | inactive: 1.01
Cc1ccc(S(=O)(=O)N[C@H]2CC[C@H](CC(=O)N3CCC(Cc4ccccc4)CC3)O[C@H]2CO)cc1 | inactive: 1.02
C/N=C1/S[C@@H](CC(N)=O)C(=O)N1C | inactive: 0.974

SMILES | relative growth
O=C(C[C@H]1CC[C@H]2[C@@H](COC[C@H](O)CN2C(=O)Nc2ccc(Cl)cc2)O1)NC1Cc2ccccc2C1 | inactive: 0.878
C[C@H]1CN([C@@H](C)CO)C(=O)c2cc(NC(=O)NC3CCCCC3)ccc2O[C@H]1CN(C)Cc1ccc(C(=O)Nc2ccccc2N)cc1 | inactive: 1.01
COc1ccc(C#Cc2cnc3c(c2)C(=O)N([C@H](C)CO)C[C@H](C)[C@H](CN(C)S(=O)(=O)c2ccccc2)O3)cc1OC | inactive: 0.996
C[C@@H]1CN([C@@H](C)CO)S(=O)(=O)c2ccc(/C=C/c3ccccc3)cc2O[C@H]1CN(C)C(=O)CN1CCOCC1 | inactive: 1.01
C[C@H](CO)N1C[C@H](C)[C@@H](CN(C)C(=O)Nc2ccccc2)OCCCC[C@H](C)Oc2ccc(NS(=O)(=O)c3ccccc3)cc2C1=O | inactive: 1.02
Cc1noc(C)c1NC(=O)Nc1ccc2c(c1)C(=O)N([C@@H](C)CO)C[C@H](C)[C@@H](CN(C)C(=O)Nc1ccccc1)OCCCC[C@H](C)O2 | inactive: 1.02
O=c1c(O[C@@H]2O[C@H](CO)[C@@H](O)[C@H](O)[C@@H]2O[C@H]2OC[C@](O)(CO)[C@H]2O)c(-c2ccc(O)c(O)c2)oc2cc(O)cc(O)c12 | inactive: 1.02
O=P(O)(O)C(O)(Cn1ccnc1)P(=O)(O)O | inactive: 1.07
Cc1ccc(S(=O)(=O)Nc2ccc3c(c2)C(=O)N([C@H](C)CO)C[C@@H](C)[C@H](CN(C)S(=O)(=O)c2cccs2)O3)cc1 | inactive: 0.986
O=C(NCCCN1CCOCC1)C(=O)NC1CC1 | inactive: 0.999
C[C@@H]1CN([C@@H](C)CO)S(=O)(=O)c2ccc(C#CCN(C)C)cc2O[C@@H]1CN(C)S(C)(=O)=O | inactive: 1.01
C[C@H](CO)N1C[C@H](C)[C@@H](CN(C)C(=O)Cc2ccccn2)Oc2cc(C#C[C@@H](C)O)ccc2S1(=O)=O | inactive: 1.01
COc1ccc(S(=O)(=O)N(C)C[C@@H]2Oc3ccc(NC(=O)Cc4ccccc4)cc3CC(=O)N([C@H](C)CO)C[C@@H]2C)cc1 | inactive: 0.974
C[C@@H]1CCCCO[C@H](CN(C)S(=O)(=O)c2ccc(F)cc2)[C@@H](C)CN([C@H](C)CO)C(=O)c2cc(NC(=O)c3ccccc3)ccc2O1 | inactive: 1.04
Cc1ccc(S(=O)(=O)Nc2ccc3c(c2)C(=O)N([C@H](C)CO)C[C@H](C)[C@H](CN(C)S(=O)(=O)c2ccc(F)cc2)OCCCC[C@@H](C)O3)cc1 | inactive: 1.02
C[C@H](CO)N1C[C@H](C)[C@@H](CN(C)S(=O)(=O)c2cn(C)cn2)Oc2c(NS(=O)(=O)c3cn(C)cn3)cccc2C1=O | inactive: 0.997
C[C@H]1CCCCO[C@H](CN(C)C(=O)Nc2ccc3c(c2)OCO3)[C@@H](C)CN([C@@H](C)CO)C(=O)c2cc(NC(=O)c3ccccc3)ccc2O1 | inactive: 1.02
C[C@@H]1CCCCO[C@H](CN(C)S(=O)(=O)c2cn(C)cn2)[C@H](C)CN([C@@H](C)CO)C(=O)c2cc(NS(=O)(=O)c3cccs3)ccc2O1 | inactive: 1.01

— the supplement of paper PMC9446081
